These results are taken from article PMC3454370.

The chains behind the UniProt entries cited, without tags or fusion partners. Where a name states a change or a piece, a line headed by the entry shows the natural chain unless it says otherwise.
UniProt P06492: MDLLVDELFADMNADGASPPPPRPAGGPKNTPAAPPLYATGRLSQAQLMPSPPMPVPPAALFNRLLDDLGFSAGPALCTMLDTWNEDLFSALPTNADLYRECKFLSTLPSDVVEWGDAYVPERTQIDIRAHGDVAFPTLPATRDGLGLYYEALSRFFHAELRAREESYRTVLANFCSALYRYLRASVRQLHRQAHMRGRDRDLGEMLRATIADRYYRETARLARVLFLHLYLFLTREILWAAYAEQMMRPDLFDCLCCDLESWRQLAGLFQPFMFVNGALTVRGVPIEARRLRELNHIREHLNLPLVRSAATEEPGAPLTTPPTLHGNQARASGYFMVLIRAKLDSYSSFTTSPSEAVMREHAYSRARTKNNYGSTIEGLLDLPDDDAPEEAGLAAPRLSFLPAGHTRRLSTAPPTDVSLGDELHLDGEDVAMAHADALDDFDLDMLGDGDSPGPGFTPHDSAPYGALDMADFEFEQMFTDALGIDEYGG
UniProt P50750: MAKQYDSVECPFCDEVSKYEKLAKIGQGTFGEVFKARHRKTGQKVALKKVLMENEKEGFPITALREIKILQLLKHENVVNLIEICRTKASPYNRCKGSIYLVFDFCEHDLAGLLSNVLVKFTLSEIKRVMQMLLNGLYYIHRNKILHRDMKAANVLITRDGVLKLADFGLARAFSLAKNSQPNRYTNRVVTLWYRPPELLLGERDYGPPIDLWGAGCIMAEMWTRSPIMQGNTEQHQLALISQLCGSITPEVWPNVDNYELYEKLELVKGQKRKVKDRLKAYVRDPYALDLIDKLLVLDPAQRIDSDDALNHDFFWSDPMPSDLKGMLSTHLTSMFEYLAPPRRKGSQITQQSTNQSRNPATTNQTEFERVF
UniProt G3HV08: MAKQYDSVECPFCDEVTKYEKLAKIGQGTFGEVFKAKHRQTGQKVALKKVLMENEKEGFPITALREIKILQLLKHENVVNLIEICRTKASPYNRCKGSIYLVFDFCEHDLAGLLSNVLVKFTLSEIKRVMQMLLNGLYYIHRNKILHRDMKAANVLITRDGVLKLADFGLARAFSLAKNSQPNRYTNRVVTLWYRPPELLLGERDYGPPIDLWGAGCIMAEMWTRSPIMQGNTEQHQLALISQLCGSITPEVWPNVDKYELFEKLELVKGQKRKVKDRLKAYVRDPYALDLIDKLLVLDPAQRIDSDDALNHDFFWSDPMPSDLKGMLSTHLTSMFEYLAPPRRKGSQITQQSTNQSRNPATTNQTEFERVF

Assay [1] addresses VP16 (HSV-1 tegument protein), expressed from pcDNA-VP16 (HSV-1) (UniProt P06492). Briefly: co-IP; CHO-K1 cells co-transfected with pcDNA-ICP22 and pcDNA-VP16 for 40 h; RIPA lysates; IP with anti-ICP22, anti-VP16, anti-Cdk9 or anti-CyclinT1 (IgG as control), also lysates mock-depleted with rabbit IgG; immunoblot. (In general: Immunoblotting shows a protein as a band on a membrane.)

Assay [2] addresses positive transcription elongation factor b (P-TEFb), endogenous in Hep-2 cells (human (endogenous in Hep-2)) (UniProt P50750). Nature of the assay: co-IP; Hep-2 cells infected with HSV-1 (MOI = 1) for 40 h; RIPA lysates; IP with anti-ICP22, anti-VP16, anti-Cdk9 or anti-CyclinT1 (IgG as control); immunoblot; also cells given si-Cdk9 and si-CyclinT1 or scrambled siRNA (100 nM) 12 h before infection, IP with anti-VP16 at 36 h.

The target of assay [3] is positive transcription elongation factor b (P-TEFb), endogenous in CHO-K1 cells (Chinese hamster (endogenous in CHO-K1)) (UniProt G3HV08). Nature of the assay: co-IP; CHO-K1 cells co-transfected with pcDNA-ICP22 and pcDNA-VP16 for 40 h; RIPA lysates; IP with anti-ICP22, anti-VP16, anti-Cdk9 or anti-CyclinT1 (IgG as control), also lysates mock-depleted with rabbit IgG; immunoblot.

In assay [4] the target is VP16 two-hybrid fusion from pGBK-VP16 (HSV-1) (UniProt P06492). Nature of the assay: two-hybrid; yeast trap: yeast strain AH109 transformed with pGAD-ICP22 and pGBK-VP16; beta-galactosidase activity relative to the negative control.
The target of assay [5] is GST-VP16 fusion protein (HSV-1) (UniProt P06492). Nature of the assay: pull-down; in vitro binding assay: 600 ng GST-VP16 incubated with 400 ng purified ICP22 at 4 °C for 4 h (GST as control); Glutathione-Sepharose precoated with BSA, overnight at 4 °C; Western blot with anti-ICP22; both purified.

No constants are given. Whether binding was seen depends on the method and setting. For some of these results: Binding seen in cells or lysates may run through a third protein. Some results given as binding are weak or reduced against the parent protein; the word gives no strength. For some of these results: Tags and fused reporters may be left off the sequences shown.

Turning to “positive transcription elongation factor b (P-TEFb), endogenous in CHO-K1 cells (from UniProt G3HV08 1-372; G3ILA5 1-729) (complex)”, the binding result in assay [1] is on record as “binds”. For the molecule “VP16 made in HSV-1 infected Hep-2 cells (from UniProt P06492 1-490)”, the binding result in assay [2] is reported as “binds”. For the molecule “VP16 (HSV-1 tegument protein), expressed from pcDNA-VP16 (from UniProt P06492 1-490)”, the binding result in assay [3] is on record as “binds”.

B1: ICP22 (HSV-1 immediate early protein), expressed from pcDNA-ICP22 (protein, UniProt P04485 1-420)
chain: MADISPGAFAPCVKARRPALRSPPLGTRKRKRPSRPLSSESEVESDTALESEVESETASDSTESGDQDEAPRIGGRRAPRRLGGRFFLDMSAESTTGTETDASVSDDPDDTSDWSYDDIPPRPKRARVNLRLTSSPDRRDGVIFPKMGRVRSTRETQPRAPTPSAPSPNAMLRRSVRQAQRRSSARWTPDLGYMRQCINQLFRVLRVARDPHGSANRLRHLIRDCYLMGYCRARLAPRTWCRLLQVSGGTWGMHLRNTIREVEARFDATAEPVCKLPCLETRRYGPECDLSNLEIHLSATSDDEISDATDLEAAGSDHTLASQSDTEDAPSPVTLETPEPRGSLAVRLEDEFGEFDWTPQEGSQPWLSAVVADTSSVERPGPSDSGAGRAAEDRKCLDGCRKMRFSTACPYPCSDTFLRP
B1: the binding entry in assay [3] is “binds”.

B2: ICP22 two-hybrid fusion from pGAD-ICP22 (protein, UniProt P04485 1-420)
chain: B1 chain
Consider B2, for which the binding result in assay [4] is “no binding”.

B3: ICP22 made in HSV-1 infected Hep-2 cells (protein, UniProt P04485 1-420)
chain: B1 chain
Regarding B3, the binding entry in assay [2] is given as “binds”.

B4: purified ICP22 protein (protein, UniProt P04485 1-420)
chain: B1 chain
For B4, the binding result in assay [5] is “no binding (tested: 600 ng GST-VP16, 400 ng ICP22)”.
